Here are results for 56 sequences from the supplement of paper PMC11417369.

This is one part of the list.

For this experiment, the system named is PF3D7_0420300 AP2 domain 1 (GST-tagged). The experiment is described as follows: gcPBM binding intensity (ln(normalized median fluorescence intensity)); higher = stronger DNA binding. The method in brief: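 Each value is the highest Masliner-normalised natural-log median intensity across replicate spots of either orientation of a probe. The probes were primer-extended double-stranded 36-bp intergenic genomic sequences on an Agilent 4 × 180k array, alongside negative controls, exposed for 1 h to GST-tagged P. falciparum DNA-binding domains expressed in E. coli. Bound protein was picked up with Alexa488 anti-GST antibody and scanned at 488 nm.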
As for “ATATTAATAATATATGCATGCATTAACATATTGAAA [TGCATGCA_site951]”, the “gcPBM binding intensity (ln)” value is 9.1.

Consider “GTATGTATGTATATATGTACACATTATTATTTAATG [XGTACX_site5802]”, for which the “gcPBM binding intensity (ln)” value was determined as 9.3.

“TTTTTTATATATACATATATATAAATATATATAACT [GTGCAC_negctrl_site385]”: the “gcPBM binding intensity (ln)” value is 8.99.

Consider “GAGAAAAGGAAATTCACACATATAAAGAAAGATCTA [CACACA_site5420]”, for which the “gcPBM binding intensity (ln)” value came out at 9.19.

For the sequence TTTTTGTTCTATATGGTGCATGTTTATATTCGTATT, the “gcPBM binding intensity (ln)” value turned out to be 9.75.

In the case of “ATTAGCAACATTGATAAATATAAACACACGAAAACA [TGCATGCA_negctrl_site97]”, the “gcPBM binding intensity (ln)” value is 9.71.

As for “TTTTAGAAATTTACTAAACTTTATATAACTATTGAA [TGCATGCA_negctrl_site280]”, the “gcPBM binding intensity (ln)” value was found to be 8.78.

Turning to “ATACCATAAATATTGTGTACATAAATATGTTAGTAA [XGTACX_site6077]”, the “gcPBM binding intensity (ln)” value was 9.28.

In the case of “CACGTATATATATATACACACACATATATATATGTA [CACACA_site7948]”, the “gcPBM binding intensity (ln)” value turned out to be 9.69.

As for “CATGTTTATGCCGTTTGTACATATATATCTAAAAAA [XGTACX_site4336]”, the “gcPBM binding intensity (ln)” value was found to be 9.18.

As to “ATGATTATAATTTAAAATATTTTACATAACCATTTC [GTGCAC_negctrl_site297]”, the “gcPBM binding intensity (ln)” value was found to be 9.14.

As to “TTTAGCTATTATAGCTGTACAATGATAAAATAAATT [XGTACX_site6318]”, the “gcPBM binding intensity (ln)” value worked out at 8.93.

In the case of “ATAAGTAAAAATAAAAAAAAAATATATATATATATA [CACACA_negctrl_site1816]”, the “gcPBM binding intensity (ln)” value stood at 9.05.

As for “GTTCATATCTTTTGAGCACACATATATATATATAAA [CACACA_site9099]”, the “gcPBM binding intensity (ln)” value amounted to 9.36.

As for “AATGAATCCTTATATACACACATTATTATATTATAT [CACACA_site3108]”, the “gcPBM binding intensity (ln)” value was found to be 9.62.

As to “TATATTATATATATGTGTACATATAAATGTAACAAA [XGTACX_site5025]”, the “gcPBM binding intensity (ln)” value came to 9.08.

As to “ATAGAATACATATATGAACACACAGAGTTTTAAAAA [CACACA_site8879]”, the “gcPBM binding intensity (ln)” value worked out at 9.55.

As for “AATACATATAAAAGTACACACACACCCATATATATA [CACACA_site8220]”, the “gcPBM binding intensity (ln)” value turned out to be 10.2.

In the case of “TTTTTTTTTTGATGTTGTACATATATACTATATAAT [XGTACX_site1332]”, the “gcPBM binding intensity (ln)” value came to 9.31.

On to “GAAAATAAAAAAAATAAAAAAAATAAAAAAAATTAT [XGTACX_negctrl_site443]”, for which the “gcPBM binding intensity (ln)” value was found to be 9.23.

As to “TAAATATCTAAAGACTGTACAATTAAATATAAACAT [XGTACX_site1450]”, the “gcPBM binding intensity (ln)” value was found to be 9.21.

On to “TTTTGTAACCTATGCACGCACACAAGAAAAAAACAA [CACACA_site3776]”, for which the “gcPBM binding intensity (ln)” value stood at 9.24.

For “AGTTTATTTGTAAAAAGTACATATTTAAGAAAACTT [XGTACX_site2318]”, the “gcPBM binding intensity (ln)” value was determined as 9.1.

With TTCTAACTCTAACAAGTGCAATATATATACATAATA, the “gcPBM binding intensity (ln)” value amounted to 9.07.

Take “AAATTTGGCAAACACACACACACACCCACACCCACA [CACACA_site8095]”: the “gcPBM binding intensity (ln)” value is 10.2.

For “AATATATATCATCACACACACATACATAAATATATA [CACACA_site184]”, the “gcPBM binding intensity (ln)” value is 10.

Take “AATATATTCCACATGTGTACATATATATATATATAT [XGTACX_site8006]”: the “gcPBM binding intensity (ln)” value came out at 9.41.

Regarding “AAAAATAAAGAAACAGGTACGCATATATTAAGATAT [XGTACX_site8097]”, the “gcPBM binding intensity (ln)” value turned out to be 9.79.

Take “TTTCCTTCTACAAAAAATTTTATCAAGAGGAAGTAC [CACACA_negctrl_site926]”: the “gcPBM binding intensity (ln)” value worked out at 8.83.

Take TGTCACTACAAATGAGTGCATTAAATAATTTGGAAA: the “gcPBM binding intensity (ln)” value was 9.01.

Regarding “AATATTATTTATATTTGTACACAGTAATATAAAATA [XGTACX_site4884]”, the “gcPBM binding intensity (ln)” value worked out at 9.06.

On to “ATATGCAAAGAGTATAATCAAAATGTAAATAAATAA [GTGCAC_negctrl_site141]”, for which the “gcPBM binding intensity (ln)” value is 9.26.

For “CCATAGATATTTTATACACACATATAATATATTAAG [CACACA_site4363]”, the “gcPBM binding intensity (ln)” value worked out at 9.44.

As for “TTATAAAGAACACAGACACACAAAGAAAGAACCAAT [CACACA_site4175]”, the “gcPBM binding intensity (ln)” value was found to be 10.1.

Regarding “CACAAATAAATACATACACACATATATACTCATATA [CACACA_site4379]”, the “gcPBM binding intensity (ln)” value was determined as 9.71.

With “TTACACAAATAGCTGCATTTATAAAATACAATTAAA [CACACA_negctrl_site241]”, the “gcPBM binding intensity (ln)” value turned out to be 9.03.

In the case of “TGGGCGTCATAATGAACACACAATTATATTATGACT [CACACA_site3910]”, the “gcPBM binding intensity (ln)” value was 9.25.

“ATATATATAATAATATGTACGGAAAAAGCTTAAGCT [XGTACX_site5661]”: the “gcPBM binding intensity (ln)” value was 9.3.

“TTTTGTCAATTTTAGATTTTTCAATACATGGATATT [CACACA_negctrl_site319]”: the “gcPBM binding intensity (ln)” value stood at 9.04.

“ATATATATATATTTATGTACGAATATGTTTAATTTA [XGTACX_site3986]”: the “gcPBM binding intensity (ln)” value worked out at 9.18.

For the sequence “AAATATATATATTTACGTACATATATACAAATAGAG [XGTACX_site6067]”, the “gcPBM binding intensity (ln)” value amounted to 9.35.

On to “AAATGGTAAGAAAATAAATAAAGTTCTACCACATAA [CACACA_negctrl_site1542]”, for which the “gcPBM binding intensity (ln)” value is 9.33.

With “TAGAAAGAATATAATTGTACAAATGTTGATAGATAA [XGTACX_site7259]”, the “gcPBM binding intensity (ln)” value was found to be 9.28.

Take “ATTTTTCTTTTATTAACACACATATAAATAAATACA [CACACA_site2876]”: the “gcPBM binding intensity (ln)” value came to 9.22.

With “ATATATATATATATATATATATATGTTTGATTTTTT [XGTACX_negctrl_site98]”, the “gcPBM binding intensity (ln)” value came to 8.88.

On to “ATAATAATAAAAATTATACATAAGTATATGCACATA [XGTACX_negctrl_site583]”, for which the “gcPBM binding intensity (ln)” value was found to be 9.17.

For the sequence “TATAAACCATAATTAACACACAAAATAAGTTACATA [CACACA_site3227]”, the “gcPBM binding intensity (ln)” value came to 9.76.

On to “ACATATGGTATTTAAACACACAAAAAAGAAAGAAAA [CACACA_site991]”, for which the “gcPBM binding intensity (ln)” value was found to be 9.55.

Take “TTTTGCTTTTTTTTTCTTTTTTGTTTTATATATATT [CACACA_negctrl_site103]”: the “gcPBM binding intensity (ln)” value stood at 9.74.

For the sequence “CCACATTAAAAAAAAACACACATATATTATATATAT [CACACA_site1155]”, the “gcPBM binding intensity (ln)” value came to 9.43.

On to “AATACATGAATATGTAGTACAGAAAAAAAAAATATA [XGTACX_site1945]”, for which the “gcPBM binding intensity (ln)” value came out at 9.32.

As to “GTTACAGAGAATGTTGTGCACATATCAATAATATAT [GTGCAC_site9671]”, the “gcPBM binding intensity (ln)” value was 9.32.

Regarding “AAAATGACATAATGGGGAATAGACATATACATAAAT [CACACA_negctrl_site1669]”, the “gcPBM binding intensity (ln)” value came to 9.63.

“TATATATATATATATATTTTAAATGATATAAATGGT [TGCATGCA_negctrl_site152]”: the “gcPBM binding intensity (ln)” value amounted to 9.2.

Take “AATTAATTAAATTAATGTACACATATATTTGTATTC [XGTACX_site2341]”: the “gcPBM binding intensity (ln)” value came out at 9.24.

For the sequence “AGAGAAAGAAGGGAGAAAAAATAAAATAAAATAAAA [GTGCAC_negctrl_site299]”, the “gcPBM binding intensity (ln)” value came to 9.07.
